Reference: the CheMixHub viscosity set
± gives the uncertainty stated by the source. For part of its entries the source gives two or more results. They are shown here; other results are not. There may be further records. Values that stand side by side are repeats (runs, samples, wells, individuals or studies). Brackets tell where a record comes from. Letters count within one entry.

SMILES	viscosity (308.15 K, 101 kPa)	viscosity (303.15 K, 101 kPa)	viscosity (313.15 K, 101 kPa)	other results
C1COCCO1	0.999 ± 0.017 mPa·s [study A] and 1.015 ± 0.021 mPa·s [study B] and 0.976 ± 0.013 mPa·s [study C] and 0.9779 ± 0.0095 mPa·s [study D] and 0.9469 ± 0.0076 mPa·s [study E] and 0.9985 ± 0.026 mPa·s [study F]			viscosity (313.15 K, 101.3 kPa): 0.9416 ± 0.015 mPa·s, 0.9414 ± 0.015 mPa·s, 0.9415 ± 0.015 mPa·s [study A] and 0.9425 ± 0.024 mPa·s [study B]
O		0.8178 ± 0.011 mPa·s [study A] and 0.826 ± 0.0073 mPa·s [study B] and 0.73 ± 0.02 mPa·s [study C] and 0.7959 mPa·s [study D] and 0.78 ± 0.02 mPa·s [study E] and 0.791 ± 0.008 mPa·s [study F] and 0.814 ± 0.007 mPa·s [study G]	0.66 ± 0.02 mPa·s, 0.98 ± 0.07 mPa·s, 0.6482 ± 0.12 mPa·s, 0.699 ± 0.006 mPa·s, 0.66 ± 0.11 mPa·s, 0.6214 ± 0.021 mPa·s, 0.6435 ± 0.0063 mPa·s, 0.662 ± 0.13 mPa·s, 0.6852 ± 0.0093 mPa·s, 0.64 ± 0.02 mPa·s [several studies]	viscosity (293.15 K, 101 kPa): 0.91 ± 0.02 mPa·s [study A] and 0.97 ± 0.02 mPa·s [study B] and 0.974 ± 0.009 mPa·s [study C] and 1.2 ± 0.08 mPa·s [study D]; viscosity (318.15 K, 100 kPa): 0.614 ± 0.008 mPa·s [study A] and 0.6 ± 0.04 mPa·s [study B] and 0.608 ± 0.049 mPa·s [study C] and 0.606 ± 0.037 mPa·s [study D] and 0.6 ± 0.04 mPa·s [study E]; viscosity (318.15 K, 101 kPa): 0.6 ± 0.009 mPa·s [study A] and 0.6 ± 0.1 mPa·s [study B] and 0.5346 ± 0.021 mPa·s [study C] and 0.624 ± 0.0062 mPa·s [study D] and 0.6071 mPa·s [study E] and 0.594 ± 0.006 mPa·s [study F] and 0.6 ± 0.02 mPa·s [study G]
Brc1ccccc1	0.939 ± 0.03 mPa·s [study A] and 0.964 ± 0.012 mPa·s [study B] and 0.938 ± 0.02 mPa·s [study C] and 0.9545 ± 0.021 mPa·s [study D] and 0.938 ± 0.008 mPa·s [study E] and 0.934 ± 0.025 mPa·s [study F] and 0.9463 ± 0.009 mPa·s [study G]	0.987 ± 0.032 mPa·s [study A] and 0.987 ± 0.021 mPa·s [study B] and 0.992 ± 0.009 mPa·s [study C] and 1.004 ± 0.0094 mPa·s [study D] and 1.016 ± 0.065 mPa·s [study E] and 0.992 ± 0.017 mPa·s [study F]	0.89 ± 0.029 mPa·s [study A] and 0.891 ± 0.019 mPa·s [study B] and 0.881 ± 0.015 mPa·s [study C] and 0.8883 ± 0.0087 mPa·s [study D]	
CCCCn1cc[n+](C)c1.O=S(=O)([N-]S(=O)(=O)C(F)(F)F)C(F)(F)F				viscosity (298.15 K, 100 kPa): 51.32 ± 0.42 mPa·s [study A] and 49.6 ± 0.63 mPa·s [study B] and 49.11 ± 2.2 mPa·s [study C] and 50.76 ± 3 mPa·s [study D] and 49.3 ± 1 mPa·s [study E]; viscosity (308.15 K, 100 kPa): 34.43 ± 1.8 mPa·s [study A] and 33.25 ± 0.42 mPa·s [study B] and 33.22 ± 1.5 mPa·s [study C] and 34.27 ± 2 mPa·s [study D]
O=C1CCCO1		1.589 ± 0.026 mPa·s [study A] and 1.61 ± 0.09 mPa·s [study B] and 1.636 ± 0.014 mPa·s [study C] and 1.545 ± 0.11 mPa·s [study D]	1.377 ± 0.023 mPa·s [study A] and 1.39 ± 0.08 mPa·s [study B] and 1.409 ± 0.013 mPa·s [study C] and 1.338 ± 0.096 mPa·s [study D]	
